Several values for one entry are separate records, joined by “and”; a condition that tells them apart may be missing. Equal entries are not always repeated. Hit rate of the full screen: of about 50,000 compounds, about 800 (1.6%) showed an effect of 50% or more. The list shows a part of the results.

In the assay the target is Bcl-2-like protein 10 (Homo sapiens) (UniProt Q9HD36). The assay can be described thus: Phenotype converters, Bcl-B/TR3 peptide binding displacement, primary biochemical FP (AID 1240).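 Also: 0% = Bcl-B with tracer peptide and DMSO and 100% = tracer peptide lacking Bcl-B.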 The note with it: GST-Bcl-B / FITC-TR3 peptide fluorescence polarization; stronger effect = higher value; compound at 3.75 mg/L.
UniProt Q9HD36, sequence (Q9HD36 whole entry, looked up): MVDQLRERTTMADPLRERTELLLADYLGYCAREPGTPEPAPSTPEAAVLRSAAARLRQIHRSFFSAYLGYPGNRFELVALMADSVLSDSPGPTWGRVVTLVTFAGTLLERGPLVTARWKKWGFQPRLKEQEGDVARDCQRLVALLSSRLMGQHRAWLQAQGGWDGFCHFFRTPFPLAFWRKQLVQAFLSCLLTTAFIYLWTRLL
On to `O=C1CCC(C(=O)OCC(=O)c2ccc([N+](=O)[O-])cc2)N1` (stereo not given), for which the displacement was 15.8%.

Regarding `Cc1cc(C)c2c(c1)=C(c1sc(N)nc1O)C(=O)N=2`, the displacement was -0.5%.

For `CC(C)C1=NN2C(=N)/C(=C/c3cc(Cl)ccc3OCc3ccccc3)C(=O)N=C2S1`, the displacement was -7.4%.

Take `Cc1cc(C)cc(OC(=O)COc2ccc(Br)cc2Br)c1`: the displacement was -2.9%. In the case of `CCCC1=NN(C(=O)c2ccccc2Cl)C(O)(C(F)(F)F)C1` (stereo not given) it was 20.7%; in that of `O=C(Nc1cccc(O)c1)c1cccc(NC(=O)c2cccs2)c1`, 16.1%. `CC(C)c1c(O)nc(SCC(=O)O)[nH]c1=O`: the displacement was -1.5%. Regarding `O=C(Nc1ccc(Br)cc1)C1CC(=O)N(c2ccccc2)C1` (stereo not given), the displacement was -13.6%. In the case of `C=CCc1ccccc1OCCOc1cccc(/C=c2\sc3nc4ccccc4n3c2=O)c1` it was 13.4%; in that of `O=C(CCN1C(=O)S/C(=C\c2ccccc2)C1=O)N1CCOCC1`, -0.3%; in that of `COc1cc2c(cc1NC(=O)CC(C)=O)oc1ccccc12`, -5%. `CCc1ccccc1NC(=O)c1ccccc1C(F)(F)F`: the displacement is -8.4%. In the case of `Nc1cc(N)c(OCC(F)(F)F)cc1OCC(F)(F)F` it was 14%; in that of `O=C(CSc1nnc2c(n1)[nH]c1ccccc12)N(c1ccccc1)c1ccccc1`, -8.9%. As for `CC(=O)N/C(=C/c1ccc(Cl)cc1)C(=O)N1CCOCC1`, the figure is 9%. As for `O=C(Nc1nccs1)C(c1ccccc1)c1ccccc1`, the figure is 2.7%. As to `COc1ccc(OC)c(N(CC(=O)Nc2cccc(Cl)c2)S(=O)(=O)c2ccc(OC)c(OC)c2)c1`, the displacement worked out at 4.1%.

Consider `Cc1cc(C)nc(Nc2nc(=O)c3ccccc3s2)n1`, for which the displacement amounted to 5.5%.

With `Cc1ccc(/C=C/C(=O)Nc2ccc([N+](=O)[O-])cc2)o1`, the displacement is 11.8%. For the molecule `O=C(CSc1nc2ccccc2s1)N=Nc1c(O)n(CN2CCCC2)c2ccccc12`, the displacement is -9.3%.

Take `CC1=NN(c2nc(-c3cc4ccccc4[nH]3)cs2)C(=O)C1C` (stereo not given): the displacement was -22%. As for `COc1ccc(/C=C2\SC(=O)N(c3ccccc3OC)C2=O)cc1`, the displacement came out at 15.2%. In the case of `CC(=O)Nc1ccc(S(=O)(=O)Nc2cccc(C(C)=O)c2)cc1` it was -7.3%; in that of `COc1ccc(NC(=O)N2CCN(c3ccc([N+](=O)[O-])cc3)CC2)cc1`, -5.5%. In the case of `COc1cc(OC)cc(C(=O)Nc2ccc(NC(=O)c3ccco3)c(OC)c2)c1` it was -5.3%; in that of `CC1(C)Cc2ccccc2-c2nnc(-c3cccnc3)n21`, 4.8% and -5.6%.

Regarding `Cn1cc(C(=O)N/N=C/c2cccc([N+](=O)[O-])c2)ccc1=O`, the displacement was 1.8%.

On to `COc1cc(NC(=O)COc2ccccc2C)c(OC)cc1Cl`, for which the displacement is -6.7%.

In the case of `CCCCSc1nnc(-c2ccccc2N)c(=O)[nH]1`, the displacement came out at 8.6%. As for `CN1CCN(C(=O)CN2C(=O)/C(=C/c3ccccc3)SC2=S)CC1`, the figure is 9.9%; as for `CCCCOc1ccc(C(=O)NCCc2ccc(Cl)cc2)cc1`, -16.2%. In the case of `CC(=O)C1=C(O)C(=O)N(CCN2CCNCC2)C1c1cccc([N+](=O)[O-])c1` (stereo not given) it was -6.9%; in that of `CC(=O)Oc1ccc2nc(-c3ccc([N+](=O)[O-])c(C)c3)oc(=O)c2c1`, 16.1%; in that of `COc1cc(C=C2C(=O)NC(=S)NC2=O)ccc1OCCO`, -5.9%. As for `Cc1ccc(C(C)C)c(OC(=O)c2ccccc2Br)c1`, the figure is 5.8%; as for `CC1=NN(c2ccc(Cl)c(Cl)c2)C(=O)/C1=C/c1cccc([N+](=O)[O-])c1`, 8.5%. On to `CCOC(=O)CC(=O)Nc1ccccc1C(=O)OCC`, for which the displacement was 7.3%.

Regarding `O=C(O)/C(=C/C(=O)c1ccccc1)N=Nc1c(O)[nH]c2ccccc12`, the displacement was determined as 13.6%. Regarding `CC(C)CC(=O)Nc1cc(C(=O)O)cc(C(=O)O)c1`, the displacement worked out at 13.4%. On to `C/C(=N\NC(=O)c1cccc(Br)c1)c1ccccn1`, for which the displacement was -1.6%. `COc1ccc2occ(C(=O)c3ccccc3Cl)c(=O)c2c1`: the displacement was found to be 9.1%. As for `CCOC(=O)c1c(NC(=O)c2cc3ccccc3oc2=O)sc(C)c1CC`, the figure is 6.7%; as for `N#Cc1cnc(N)c(C#N)c1Nc1ccccc1`, 6.5%; as for `COc1cc(NC(=O)COc2ccc3ccccc3c2)cc(OC)c1`, 11.4%. Consider `Cc1cccc(N2C(=O)c3ccc(C(=O)O)cc3C2=O)c1C`, for which the displacement came out at 2.2%. As for `O=S(=O)(c1ccc2ccccc2c1)N(CC(O)CN1CCCCC1)c1ccccc1` (stereo not given), the figure is -0.4%; as for `COc1cc(/C=N\NC(=O)CNc2ccc(C)cc2)ccc1OC(=O)c1cccs1`, 8.5%; as for `Cc1ccc(C2Nc3ccccc3C(=O)N2Cc2ccccc2)cc1` (stereo not given), 12.9%. As for `COc1ccc(OC)c(C(O)c2nccn2C)c1` (stereo not given), the figure is 9.9%; as for `Cc1cc(=O)oc2c(C)c(OC(=O)c3ccccc3)ccc12`, 2.5%; as for `O=C1OC(c2ccccc2F)=N/C1=C\c1ccc(OC(=O)c2ccccc2Cl)cc1`, 1.5%.

Regarding `Clc1ccc(Cc2nnn(-c3ccccc3)n2)cc1`, the displacement was 5.2%. As for `O=C(N/N=C/c1cccc(Cl)c1)c1ccncc1`, the figure is 1.8%; as for `CC(=O)Oc1ccc(C(=O)Nc2cccc(C(=O)O)c2C)cc1`, 3.9%.

Regarding `COc1cc(NC(=O)c2ccc3c(c2)C(=O)N(C2CCCCC2)C3=O)c(C(=O)O)cc1OC`, the displacement was found to be 4%. As for `COc1ccc(CSc2nnnn2-c2ccccc2)cc1`, the figure is -10.4%; as for `O=c1c2c(nc3cc(-c4ccc(I)cc4)[nH]n13)CCS2`, 97.5%; as for `Cc1ccc(C(C)(C)C)c(OCC(=O)Nc2ccccc2F)c1`, 3.3%. In the case of `O=C(Nc1cccc2ccccc12)C1OC2OC3(CCCCC3)OC2C2OC3(CCCCC3)OC12` (stereo not given) it was -7.4%. As for `Cc1ccc(N(CC(=O)Nc2ccc(I)cc2)S(C)(=O)=O)cc1Cl`, the figure is 7.9%. Take `C=CCN1C(=O)/C(=C\c2cc3c(cc2[N+](=O)[O-])OCO3)SC1=S`: the displacement was 10.8%. Take `COc1ccc(Cl)cc1C(=O)Nc1ccccc1Br`: the displacement was found to be 30.2%.

For the molecule `Oc1ccccc1/C=N/Nc1c(Cl)cc(Cl)cc1Cl`, the displacement is 3.3%. As for `CCOc1ccc(-c2cc(C(=O)N/N=C/C=C/c3ccccc3)[nH]n2)cc1`, the figure is -2.6%; as for `CS(=O)(=O)N(CC(=O)Nc1ccc2ccccc2c1)c1ccc(Br)cc1`, -0.4%; as for `COc1cc(C(=O)N2CC(C)OC(C)C2)c([N+](=O)[O-])cc1OC` (stereo not given), -0.2%. In the case of `COc1ccc(C2C(C(=O)OC(C)(C)C)C(=O)CC(C)(O)C2C(=O)OC(C)(C)C)cc1OC` (stereo not given) it was -11.5%; in that of `CCOc1cc(OCC)cc(C(=O)Nc2ccc(Cl)cn2)c1`, 12.3%. In the case of `COc1ccc(CCNC(=O)c2ccccc2[N+](=O)[O-])cc1` it was -5.9%; in that of `O=C(Nc1cccc(Oc2ccc(C(=O)O)c(C(=O)O)c2)c1)c1ccc(-c2ccccc2)cc1`, 9.2%; in that of `O=C(NC(=S)Nc1ccc(O)c(-c2nc3ccccc3o2)c1)c1ccco1`, 15.2%. As to `COc1ccc(C(OC(=O)NC(O)C(Cl)(Cl)Cl)P(=O)(OC(C)C)OC(C)C)cc1` (stereo not given), the displacement is -0.3%. As for `CCOc1cc(OCC)cc(C(=O)Nc2cccc3nsnc23)c1`, the figure is 13.4%. As to `Cc1ccc(C(=O)Nc2ccc(Cl)cc2Cl)o1`, the displacement stood at 7.5%. As for `COc1ccccc1NC1=NC2(CCCCC2)N=C(N)N1`, the figure is 0.1%; as for `O=S(=O)(Nc1ccc(O)cc1)c1ccc(Br)cc1`, 12.2%. As for `O=C(O)CCCCCN1C(=O)C(=O)/C(=C(/O)c2ccc(F)cc2)C1c1ccccc1F` (stereo not given), the displacement was -7.2%. As for `Cc1cc2nc(-c3cc(NC(=O)COc4ccccc4[N+](=O)[O-])ccc3Cl)oc2cc1C`, the figure is -23.2%. In the case of `O=C(NC(=S)Nc1ccccc1)c1ccccc1` it was 4.7%; in that of `Cc1ccc(C2CC(C(F)(F)F)n3nc(C(=O)O)cc3N2)cc1` (stereo not given), -4.1%. In the case of `COC(=O)c1c(NC(=O)c2ccc(F)cc2)sc(Cc2ccccc2)c1C`, the displacement was -6.6%.

As for `COc1ccccc1NC(=O)c1sc(N)c(C(=O)OC(C)C)c1C`, the displacement is -4.5%. In the case of `COC(=O)CN(c1ccccc1C)S(=O)(=O)c1ccc(C)cc1` it was 0.1%.

In the case of `CC(=O)N(Cc1ccco1)C1CC(=O)N(c2ccc(Cl)cc2)C1=O` (stereo not given), the displacement is -3.8%. As for `CC12CCC(C(=O)N(c3nc(-c4ccccc4)cs3)C1=O)C2(C)C` (stereo not given), the figure is 0.6%.

Consider `O=C(NC(NC(=S)Nc1ccccc1Cl)C(Cl)(Cl)Cl)c1ccccc1Br` (stereo not given), for which the displacement stood at 1%. In the case of `O=C(N/N=C/c1cccc(Cl)c1Cl)c1cc(Br)ccc1O` it was 3.3%. In the case of `CS(=O)(=O)c1ccc2nc(NC(=O)c3ccc(Cl)c(Cl)c3)sc2c1` it was 11.8%; in that of `COc1ccc(S(=O)(=O)N2CCN(Cc3cc(OC)ccc3OC)CC2)cc1`, -4.3%; in that of `COc1ccc(C(c2c(O)cc(C)oc2=O)c2c(O)cc(C)oc2=O)cc1`, -10.3%. `COc1cc(NC(=O)c2cc3nc(-c4ccc5c(c4)OCO5)cc(C(F)(F)F)n3n2)c(OC)cc1Cl`: the displacement stood at 2.8%.

As to `COc1ccc(OC)c(C2/C(=C(\O)c3ccc(C)cc3)C(=O)C(=O)N2CCCC(=O)O)c1` (stereo not given), the displacement was 4%. In the case of `Cc1oc(C)c2c(=O)cc(-c3ccc4c(c3)OCO4)cc(O)c12` it was 4.8%; in that of `Cc1ccccc1-c1nc2cc(NC(=S)NC(=O)c3ccc(Cl)cc3)ccc2o1`, 37.3%. In the case of `O=c1oc2ccccc2c(N2CCCC2)c1CN1CCCC1` it was 0.5%.

For `O=C(COc1ccccc1Cl)Nc1cccc(-c2cc3ccccc3oc2=O)c1`, the displacement is -3.6%. Take `O=[N+]([O-])c1ccc(N2CCOCC2)cc1NCCOc1ccc(Cl)cc1`: the displacement is 22.1%. For `O=C(c1ccc(F)cc1)N1CCN(S(=O)(=O)c2ccc(Cl)cc2)CC1`, the displacement was 1.9%. In the case of `NS(=O)(=O)c1ccc(NC(=O)c2ccccc2C(=O)O)cc1`, the displacement was determined as 2.6%.

For the molecule `COc1cc(NS(=O)(=O)c2ccc(NC(=O)c3cccc(C)c3)cc2)ncn1`, the displacement is 13.4%. In the case of `CCOC(=O)c1ccc(N2NC(=O)/C(=C/c3cc(Br)ccc3O)C2=O)cc1` it was 9.2%; in that of `COCCN1C(=O)/C(=C/c2ccccc2)SC1=S`, 5.2%. As for `O=[N+]([O-])c1ccccc1/C=N/n1cnnc1`, the figure is 2.4%; as for `CC(=O)NC1=NC(=O)/C(=C\c2ccccc2F)S1`, 107%. As for `CCc1ccc(OCC(=O)Nc2cccc(OC)c2)cc1`, the displacement came out at 12.6%. For `COc1ccccc1NC(=O)c1ccc(-n2cnnn2)cc1`, the displacement amounted to 0.9%. In the case of `CCOc1ccc(C(=O)Nc2ccccc2C(F)(F)F)cc1` it was 9.8%. In the case of `O=C(CCc1ccccc1)N1N=C(c2cccc([N+](=O)[O-])c2)CC1(O)C(F)(F)F` (stereo not given), the displacement stood at 5.1%. Regarding `Cc1ccc(-c2nnc(-c3ccncc3)o2)cc1`, the displacement turned out to be 4.2%.

`O=C(Nc1ccc(Oc2ccccc2)cc1)c1ccco1`: the displacement is 16.1%.

The record behind these values is PubChem BioAssay AID1240 (Sanford-Burnham Center for Chemical Genomics, 2008).
